Measurements taken from the supplement of paper PMC3334620.
Over roughly 33,000 sequences, “E-score (-0.5 to 0.5)” has its median near -0.017; the highest 2% begin near 0.3. The list shows a part of the results.

target: T1, Sut1 (UniProt P53032); assay: PBM E-score (8-mer binding enrichment) (E-score (-0.5 to 0.5)); higher = stronger / more preferred TF binding; most listed sequences are background and not binding sites; conditions: protein concentration: 200 nM; construct: GST-full length
T1 sequence: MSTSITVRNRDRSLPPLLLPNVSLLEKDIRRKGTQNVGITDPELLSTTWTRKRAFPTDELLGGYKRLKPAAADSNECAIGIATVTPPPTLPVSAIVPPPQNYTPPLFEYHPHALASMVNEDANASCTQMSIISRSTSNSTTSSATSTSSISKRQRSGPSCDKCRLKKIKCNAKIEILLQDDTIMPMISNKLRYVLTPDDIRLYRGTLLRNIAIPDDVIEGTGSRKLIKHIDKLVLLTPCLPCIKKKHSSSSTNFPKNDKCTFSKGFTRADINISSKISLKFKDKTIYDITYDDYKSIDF
Method: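 Universal 'all 10-mer' protein binding microarrays (Agilent AMADID 015681) probed with GST-tagged S. cerevisiae TFs (full-length or DBD) made by in vitro transcription/translation (PURExpress), about 100-200 nM. Bound TF was detected with fluorescent anti-GST. Each ungapped 8-mer (which stands for itself and its reverse complement) is scored by the PBM enrichment score (E-score), a modified Wilcoxon-Mann-Whitney statistic from -0.5 to +0.5, computed with the Universal PBM Analysis Suite. Scale: above 0.35 generally sequence-specific binding.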

Row | Sequence | PBM E-score
1 | CAACCGAA | 0.147
2 | AGAATGGC | 0.161
3 | TATCCTCA | -0.0457
4 | AGGCAACT | 0.151
5 | AACGAAAT | 0.204
6 | AAGGGACC | -0.209
7 | CCTCATAG | -0.008
8 | AACTGTAT | 0.214
9 | GCTAGTAC | -0.14
10 | CCAGGAAG | -0.111
11 | TCATCGCA | -0.0951
12 | ACTAGCCC | -0.0317
13 | AGGGAGTG | -0.295
14 | AGCACGTG | -0.0228
15 | AATAGTGA | 0.0686
16 | AGAGGCAG | -0.319
17 | CGGCTACC | -0.0748
18 | AATGCGTC | -0.218
19 | CAGAGATA | 0.0489
20 | GTTCCTTA | -0.0771
21 | ACGGGAAG | -0.197
22 | CAGAGTAA | -0.165

Row | Sequence | PBM E-score
23 | AGAGCCTC | -0.222
24 | CTGGCTCC | -0.17
25 | AGTTCGGA | 0.352
26 | TGTCTTAA | -0.039
27 | ATCACTAC | -0.0951
28 | ATTTGCAA | 0.146
29 | CCACCTGA | -0.0496
30 | ACGGCCTG | -0.156
31 | GGAACGCC | -0.153
32 | AAAATCAA | 0.175
33 | AACACCGC | -0.0108
34 | GCAATCTA | 0.101
35 | ACTGCGTG | -0.186
36 | TGATAACA | 0.234
37 | CAGCGATC | -0.215
38 | GCAGCTCA | -0.0107
39 | CAGGCGGA | 0.163
40 | GTCACTCA | 0.127
41 | TAAAGAGA | 0.19
42 | AGATAAAT | 0.273
43 | GACACCAC | -0.198
44 | AATGTAGC | -0.142

Row | Sequence | PBM E-score
45 | ACATACTC | 0.0814
46 | CGTAGTGA | -0.176
47 | ACGGCAGC | -0.0498
48 | AGGTCGCA | -0.0454
49 | GTTTCAAA | 0.212
50 | AGGAGGGA | -0.18
51 | TGCAGTAA | -0.137
52 | ACCGTGGG | -0.237
53 | CATCGTGG | -0.226
54 | ACTAGGCA | -0.15
55 | GTCCGGAA | 0.402
56 | CACGCACG | -0.158
57 | ACAGAGAT | 0.0393
58 | ATTTTGCC | 0.0339
59 | ATTGGGTG | 0.129
60 | GTCCTCGA | -0.119
61 | ACAGAGCA | 0.0566
62 | ACTCATTA | 0.151
63 | ATATTGCG | -0.00328
64 | AATATCTC | 0.196
65 | CAACGCGC | 0.102
66 | ACGGTGAT | -0.0435

Row | Sequence | PBM E-score
67 | AGCAACAA | 0.175
68 | TAATCCCA | -0.0296
69 | ATCCGTCG | 0.0307
70 | GATTGGAC | -0.0604
71 | AATACCCC | -0.0993
72 | CGCCTCAG | -0.158
73 | ATTTGATC | 0.025
74 | CCTATCTA | -0.0945
75 | ATGGAATA | 0.247
76 | AAAACCAG | -0.129
77 | CCTAGAAC | -0.0639
78 | AGTTGGAG | 0.0595
79 | ACAACGCA | -0.0197
80 | CCACTAAA | 0.00512
81 | GAACTGAC | -0.197
82 | CTGGTCTC | -0.254
83 | ACGTTGCC | -0.283
84 | ACCCATTG | -0.0815
85 | GCAACCAC | -0.0245
86 | CGGTGAGA | 0.0413
87 | AGACCCGG | 0.105
88 | ACCCGAGA | 0.0446

Row | Sequence | PBM E-score
89 | ACTGTGCT | -0.129
90 | CAATACAC | 0.0377
91 | ATGTCCCG | 0.0332
92 | GGGCCTAC | -0.251
93 | CACTGGCG | -0.217
94 | CCTACAAA | 0.128
95 | GCACCACC | -0.122
96 | GCCGTAGC | -0.249
97 | CGTCAGAG | -0.13
98 | GACGACAA | 0.0999
99 | AAACGCTA | 0.0761
100 | GTGTTACA | 0.185
101 | AGGCGATA | -0.0566
102 | TCACGGAA | 0.238
103 | AGCCGCCA | -0.0466
104 | CGGGCTCA | -0.138
105 | AAGCATCC | -0.13
106 | CTATTAAG | 0.0958
107 | CTGACAGA | 0.045
108 | CGGAGACC | 0.315
109 | AGTAAAAT | 0.177
110 | ATTGGAAA | 0.0528
